The other results are listed elsewhere or left out.
Columns and labels:
HSkMC = human skeletal muscle cells; assay: cytotoxicity call (relative viability < 0.9); conditions: 10 µM
HepG2 = assay: cytotoxicity call (relative viability < 0.9); conditions: 10 µM
S. aureus RN4220 = assay: growth inhibition call (relative growth <= 0.2); conditions: 50 µM

CCc1cc(=O)oc2cc(O[C@@H](C)C(=O)N[C@@H](CCCNC(=N)N)C(=O)O)ccc12
inactive: cytotoxicity call (HSkMC) | cytotoxicity call (HepG2) | growth inhibition call (S. aureus RN4220)

C[C@H]1CCCCO[C@H](CN(C)C(=O)Nc2cccc3ccccc23)[C@@H](C)CN([C@@H](C)CO)C(=O)c2cc(NS(C)(=O)=O)ccc2O1
inactive: cytotoxicity call (HSkMC) | cytotoxicity call (HepG2) | growth inhibition call (S. aureus RN4220)

C[C@@H]1CN([C@H](C)CO)C(=O)Cc2cc(NC(=O)C3CCCCC3)ccc2O[C@H]1CN(C)S(C)(=O)=O
inactive: cytotoxicity call (HSkMC) | cytotoxicity call (HepG2) | growth inhibition call (S. aureus RN4220)

C[C@@H]1CN([C@@H](C)CO)C(=O)c2cccc(NC(=O)CCCCCC(=O)Nc3ccccc3N)c2O[C@H]1CN(C)C(=O)Nc1ccc(C(F)(F)F)cc1
inactive: cytotoxicity call (HSkMC) | cytotoxicity call (HepG2) | growth inhibition call (S. aureus RN4220)

COc1ccc(NC(=O)Nc2ccc3c(c2)C(=O)N([C@@H](C)CO)C[C@H](C)[C@@H](CN(C)S(=O)(=O)c2ccc(OC)cc2)OCCCC[C@H](C)O3)cc1
inactive: cytotoxicity call (HSkMC) | cytotoxicity call (HepG2) | growth inhibition call (S. aureus RN4220)

N#CCNC(=O)CN1C(=O)c2ccccc2C1=O
inactive: cytotoxicity call (HSkMC) | cytotoxicity call (HepG2) | growth inhibition call (S. aureus RN4220)

Cc1noc(C)c1NC(=O)N(C)C[C@@H]1OCCCC[C@H](C)Oc2ccc(NC(=O)Nc3ccc(F)cc3)cc2C(=O)N([C@@H](C)CO)C[C@@H]1C
inactive: cytotoxicity call (HSkMC) | cytotoxicity call (HepG2) | growth inhibition call (S. aureus RN4220)

COc1ccc2c3c(n(c2c1)C)[C@H](CO)N(Cc1cc(cc(c1)OC)OC)C[C@]13CN(C1)C(=O)CN1CCOCC1
inactive: cytotoxicity call (HSkMC) | cytotoxicity call (HepG2) | growth inhibition call (S. aureus RN4220)

Cc1ccc([C@@H](CN)c2c[nH]c3ccccc23)o1
inactive: cytotoxicity call (HSkMC) | cytotoxicity call (HepG2) | growth inhibition call (S. aureus RN4220)
